Drawing on publication PMC6770308, this text covers binding for one molecule.

Results are given in words; binding and its absence hold for the method and conditions named. Some results given as binding are weak or reduced against the parent protein; the word gives no strength. Where a sequence is shown, tags or fusion partners need not be part of it.

Common to all, as to assay: two-hybrid; OsCAF1 and its truncations in pGBKT7 (BD), OsCRS2 in pGADT7 (AD), co-transformed into yeast AH109; grown on SD-T/L at 28 °C, interaction read on SD/-Trp-Leu-His-Ade with dilution series
For assay [1], the target named is T1, OsCAF1-C4 (685-701) (rice) (UniProt Q5VMQ5).
T1 sequence: VVPQGTLRVDELAKLLA

The target in assay [2] is T2, OsCAF1-M (185-386) (rice) (UniProt Q5VMQ5).
T2 sequence: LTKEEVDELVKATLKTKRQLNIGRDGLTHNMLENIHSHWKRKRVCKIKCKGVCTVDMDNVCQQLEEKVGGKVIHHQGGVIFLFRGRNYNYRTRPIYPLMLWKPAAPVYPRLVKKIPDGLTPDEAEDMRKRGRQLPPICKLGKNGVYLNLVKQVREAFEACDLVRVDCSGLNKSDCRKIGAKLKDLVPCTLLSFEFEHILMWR

The next assay concerns the target T3, OsCAF1-N (1-184) (rice) (UniProt Q5VMQ5).
T3 sequence: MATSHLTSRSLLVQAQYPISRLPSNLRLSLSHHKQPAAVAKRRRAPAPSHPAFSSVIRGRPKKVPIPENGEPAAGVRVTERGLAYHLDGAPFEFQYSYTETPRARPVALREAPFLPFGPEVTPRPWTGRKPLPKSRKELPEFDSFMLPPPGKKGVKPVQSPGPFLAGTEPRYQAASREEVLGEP

Assay [3] addresses T4, OsCAF1-C (387-701) (rice) (UniProt Q5VMQ5).
T4 sequence: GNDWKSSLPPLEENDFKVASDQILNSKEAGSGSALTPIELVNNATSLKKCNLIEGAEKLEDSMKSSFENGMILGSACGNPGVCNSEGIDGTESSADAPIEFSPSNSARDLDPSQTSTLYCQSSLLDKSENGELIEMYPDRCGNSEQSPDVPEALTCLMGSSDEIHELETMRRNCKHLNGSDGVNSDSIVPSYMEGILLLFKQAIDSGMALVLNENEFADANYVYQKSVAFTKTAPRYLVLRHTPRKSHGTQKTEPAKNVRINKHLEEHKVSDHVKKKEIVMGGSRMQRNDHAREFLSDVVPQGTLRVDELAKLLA

Assay [4] concerns the target T5, OsCAF1-C1 (387-584) (rice) (UniProt Q5VMQ5).
T5 sequence: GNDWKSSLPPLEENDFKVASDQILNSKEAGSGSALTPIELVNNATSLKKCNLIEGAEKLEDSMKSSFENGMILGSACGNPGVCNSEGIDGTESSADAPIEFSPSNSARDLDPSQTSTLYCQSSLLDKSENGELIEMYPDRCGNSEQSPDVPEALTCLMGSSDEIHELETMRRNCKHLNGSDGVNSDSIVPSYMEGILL

In assay [5] the target is T6, OsCAF1 (full-length, BD-OsCAF1) (rice) (UniProt Q5VMQ5).
T6 sequence: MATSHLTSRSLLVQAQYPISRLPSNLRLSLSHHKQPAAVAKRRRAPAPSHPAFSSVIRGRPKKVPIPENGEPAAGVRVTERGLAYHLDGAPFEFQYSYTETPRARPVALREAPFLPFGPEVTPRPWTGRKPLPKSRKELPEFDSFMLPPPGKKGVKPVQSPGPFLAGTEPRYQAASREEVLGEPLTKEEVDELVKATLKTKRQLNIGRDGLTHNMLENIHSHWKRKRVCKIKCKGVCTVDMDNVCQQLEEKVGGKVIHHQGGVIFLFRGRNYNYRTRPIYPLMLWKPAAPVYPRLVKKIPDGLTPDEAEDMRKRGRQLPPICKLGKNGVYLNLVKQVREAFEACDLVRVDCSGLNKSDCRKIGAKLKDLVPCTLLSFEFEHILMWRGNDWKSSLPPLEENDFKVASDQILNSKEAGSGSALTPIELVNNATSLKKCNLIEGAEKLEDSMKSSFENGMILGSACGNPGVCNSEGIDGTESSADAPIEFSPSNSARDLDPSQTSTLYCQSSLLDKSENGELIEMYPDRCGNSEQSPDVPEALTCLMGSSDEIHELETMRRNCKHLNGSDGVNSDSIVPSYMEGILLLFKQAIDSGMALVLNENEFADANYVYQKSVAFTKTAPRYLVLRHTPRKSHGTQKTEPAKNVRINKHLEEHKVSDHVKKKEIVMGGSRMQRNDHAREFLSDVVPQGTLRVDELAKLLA

Assay [6] concerns the target T7, OsCAF1-C2 (585-598) (rice) (UniProt Q5VMQ5).
T7 sequence: LFKQAIDSGMALVL

B1: OsCRS2 (full-length, AD-OsCRS2) (protein, UniProt Q5ZCL8 1-259)
chain: MSLAVATPASARLSPLTTSSPEPCRRRRLLLSAAAPLRRTRLRRRIAVVASVPDPAARPAEYTPWLIAGLGNPGSKYHGTRHNVGFEMVDRIARDEGITMNTIQSKSLLGIGSIGEVPVLLVKPQSYINYSGEAIGPLAAYYQVPLRHILVMYDEMSLPNGVLRLQRKGGHGRHNGLQNVMECLDSSRELPRLSIGIGSPPGKMDTRAFLLQKFSSEERLQIDTALEQGVDAVRTLVLKGFSGSIERFNLVQKYKFHSV
As for B1, the binding entry in assay [1] was “no binding”; in assay [2] it was “no binding”; with OsCAF1-N (1-184) (rice), “no binding”; in assay [3], “binds”; in assay [4] it was “binds”; in assay [5] it was “binds”. In addition, the binding entry in assay [6] is listed as “no binding”.
